Article PMC4336329 (PLoS ONE, 2015)
About 2,200 (0.71%) of roughly 310,000 compounds showed an effect of 50% or more. Effects have a minus sign here. Some of the results follow.

target: human ether-à-go-go-related gene (hERG) potassium channel (human, UniProt Q12809); assay: primary screen, population patch clamp on CHO cells stably expressing hERG
Sequence (Q12809 whole entry, looked up): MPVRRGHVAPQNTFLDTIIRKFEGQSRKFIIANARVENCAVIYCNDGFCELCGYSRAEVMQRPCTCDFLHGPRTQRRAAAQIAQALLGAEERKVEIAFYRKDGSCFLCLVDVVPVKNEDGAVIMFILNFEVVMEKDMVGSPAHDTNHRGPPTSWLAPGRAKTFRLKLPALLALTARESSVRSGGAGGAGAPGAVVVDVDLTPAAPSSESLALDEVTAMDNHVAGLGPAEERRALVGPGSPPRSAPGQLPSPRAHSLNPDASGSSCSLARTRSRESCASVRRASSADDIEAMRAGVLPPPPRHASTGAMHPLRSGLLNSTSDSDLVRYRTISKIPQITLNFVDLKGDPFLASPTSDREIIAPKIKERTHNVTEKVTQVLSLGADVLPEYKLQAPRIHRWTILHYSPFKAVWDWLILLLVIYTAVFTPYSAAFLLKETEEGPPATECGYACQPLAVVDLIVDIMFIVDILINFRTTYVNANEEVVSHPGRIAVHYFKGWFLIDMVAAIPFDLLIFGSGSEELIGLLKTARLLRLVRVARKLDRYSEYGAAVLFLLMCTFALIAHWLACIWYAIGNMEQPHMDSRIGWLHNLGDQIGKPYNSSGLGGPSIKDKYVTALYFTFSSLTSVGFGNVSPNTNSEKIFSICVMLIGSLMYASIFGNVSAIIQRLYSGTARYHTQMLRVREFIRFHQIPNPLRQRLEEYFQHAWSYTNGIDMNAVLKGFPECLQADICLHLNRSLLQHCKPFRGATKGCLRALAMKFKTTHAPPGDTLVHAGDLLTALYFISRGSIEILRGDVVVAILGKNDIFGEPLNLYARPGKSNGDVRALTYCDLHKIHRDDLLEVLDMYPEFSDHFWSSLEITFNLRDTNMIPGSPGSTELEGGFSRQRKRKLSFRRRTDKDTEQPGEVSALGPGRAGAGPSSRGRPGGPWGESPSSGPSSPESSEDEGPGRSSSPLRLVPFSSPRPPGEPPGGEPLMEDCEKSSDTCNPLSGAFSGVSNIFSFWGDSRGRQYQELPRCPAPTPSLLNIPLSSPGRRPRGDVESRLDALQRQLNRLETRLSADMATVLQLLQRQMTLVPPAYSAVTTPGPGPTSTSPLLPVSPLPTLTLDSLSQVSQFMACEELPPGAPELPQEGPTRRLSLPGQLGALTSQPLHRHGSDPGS

| SMILES | hERG current change (%, negative = inhibition) at 1uM |
| --- | --- |
| CC(CN1CCOCC1)OC(=O)c1ccc2c(c1)OCCO2.Cl (stereo not drawn) | 2.72% |
| O=C(NCCCn1ccnc1)c1c(F)cccc1F | 13.9% |
| Cc1cc(C)n2nc(SCC(=O)Nc3c(C)nn(-c4ccccc4)c3C)nc2n1 | 8.62% |
| Cc1c(CC(Cl)(Cl)Cl)c2c(n1O)CC(C)(C)CC2=O | 6.51% |
| CS(=O)(=O)N1CCN(C(=O)C(Sc2ccccc2)c2ccccc2)CC1 (stereo not drawn) | -4.86% |
| Cc1cccc(N(Cc2ccccc2)C(=O)c2cc(S(=O)(=O)N3CCOCC3)ccc2F)c1 | 12.3% |
| COc1cccc(NC(=O)C2C3CC4OC(=O)C2C4C3)c1 (stereo not drawn) | 13.8% |
| Cc1ccc(NC(=O)CCNS(=O)(=O)c2ccc3[nH]c(=O)oc3c2)c(Cl)c1 | 8.46% |
| CC1(C)CC(=O)c2c(O)cc(OCc3ccc(Br)cc3)cc2O1 | 10.5% |
| COc1ccc(N2CC(O)=C(c3nc4ccccc4s3)C2=N)cc1 | 6.79% |
| COc1ccc(Cl)cc1C(=O)Nc1ccccc1N1CCN(C)CC1 | -70.4% |
| CC(NC(=O)c1cccc(N(C)C)c1)c1ccc(-n2ccnc2)cc1 (stereo not drawn) | -37.9% |
| COc1ccc(/C=C(\C)c2nc(C)c(-c3ccccc3)c(=O)[nH]2)cc1 | 6.64% |
| COC(=O)c1ccccc1NC(=O)CSc1nnc(-c2ccoc2C)n1C | -1.98% |
| C=CCNC(=O)c1c(CS(=O)(=O)c2ccccc2)noc1C(=O)NCc1ccccc1 | -4.26% |
| O=C(CSc1nc(=O)n2ccccc2n1)Nc1ccc2c(c1)OCO2 | 7.63% |
| CCOc1ccc(NS(=O)(=O)c2ccc(OC)c(NC(=O)c3ccc4c(c3)OCCO4)c2)cc1 | 7.12% |
| CCCC12CN3CCN(CC(C3)/C1=N\NC(=O)Nc1ccccc1)C2 | 11.7% |
| O=S(=O)(/C=C/c1ccccc1)NC1CCCCCCC1 | 0.355% |
| Cc1nonc1-c1csc(N)n1 | 6.55% |
| CN1CCN(c2ccc(NC(=O)c3sc4ccccc4c3Cl)cc2)CC1 | 7.55% |
| O=C(CSc1nc2ccccc2c(=O)n1-c1ccccc1)NCc1ccco1 | 5.54% |
| COc1ccc(NC(=O)c2cccc(Cn3cc(Br)cn3)c2)cn1 | 6.09% |

| SMILES | hERG current change (%, negative = inhibition) at 1uM |
| --- | --- |
| Nc1ncnc2nc(SCc3ccc(Cl)cc3Cl)[nH]c12 | 14% |
| COc1ccc(-n2nc(C(=O)NCC(=O)NCC3CCCO3)c3ccccc3c2=O)cc1Cl (stereo not drawn) | 9.44% |
| O=C(COC(=O)c1ccccn1)NCc1ccccc1Cl | 2.21% |
| Cc1ccc(NC(=O)CN2C(=O)NC3(CCCCCCC3)C2=O)cc1C | 10.9% |
| CC(C)(C)c1ccc(Cc2n[nH]c(=S)[nH]c2=O)cc1 | 13.1% |
| Cc1nc(C)c(-c2ccc(SCC(=O)Nc3ccccc3)nn2)s1 | 12.4% |
| CCC1Oc2ccc(C)cc2N(CC(=O)N2CCCC2)C1=O (stereo not drawn) | 0.676% |
| COc1cc(NC(=O)COC(=O)c2cnc(C)cn2)c(C)cc1[N+](=O)[O-] | 12.2% |
| CCC1CCCCN1CCCNC(=O)Cn1nc(-c2ccccc2)ccc1=O (stereo not drawn) | 3.42% |
| COc1ccc(OC)c(CCNC(=O)CS(=O)(=O)Cc2nc(-c3ccccc3Cl)oc2C)c1 | 21.9% |
| CSCCC(NC(=O)C1CCC(C)CC1)C(=O)O (stereo not drawn) | 14.6% |
| COc1ccc(NS(=O)(=O)c2ccc(NC(C)=O)cc2)cc1OC | 0.751% |
| COC(=O)c1ccc(C2NC(C(=O)O)CS2)cc1 (stereo not drawn) | 15.7% |
| Cc1cc(S(=O)(=O)NCC(C)C)ccc1OCC(=O)N1CCOCC1 | 4.74% |
| COc1ccc(N2C(=O)CC(Sc3nc(C)cc(C)c3C#N)C2=O)cc1 (stereo not drawn) | 13.4% |
| COc1ccc(OCCOC(=O)c2ccc(F)c(S(=O)(=O)N3CCOCC3)c2)cc1 | 12.2% |
| COc1ccc(C(=O)NC(=S)Nc2nc(C)cc(C)n2)cc1Br | 14.4% |
| CC(Sc1ccccc1)C(=O)N(CCC#N)Cc1cccnc1 (stereo not drawn) | 11.6% |
| Cc1noc(C)c1CSc1nc2ccccc2n1C | 15% |
| COc1ccc(C)cc1NS(=O)(=O)c1ccc2c(c1)N(C(C)=O)CCO2 | 5.82% |
| COC(=O)c1ccc(NC(=O)C(=O)NCC2CCCO2)cc1 (stereo not drawn) | 9.42% |
| CC1CCC(NC(=O)C2CCC(CNS(=O)(=O)c3cccc4cccnc34)CC2)CC1 (stereo not drawn) | 19.1% |
| COc1ccccc1CNS(=O)(=O)N(C)C | 10.6% |

| SMILES | hERG current change (%, negative = inhibition) at 1uM |
| --- | --- |
| Cn1c(NCCO)nc2c1c(=O)n(Cc1cccc(Cl)c1)c(=O)n2C | 13.4% |
| Cn1c(=O)c2c(ncn2CCN(CCO)Cc2ccccc2)n(C)c1=O | -0.88% |
| CC(C)OC(=O)C1C(=O)CC(C)(O)C(C(=O)OC(C)C)C1c1ccccc1 (stereo not drawn) | 11.7% |
| COc1ccc(Cl)cc1NC(=O)Nc1ccc(Br)cn1 | 13.5% |
| Cc1ccccc1C(=O)NC(CC(C)C)C(=O)OCc1cc(=O)n2cc(Br)ccc2n1 (stereo not drawn) | -4.24% |
| NP(=O)(OCCCc1ccccc1)Oc1ccc(Cl)cc1 (stereo not drawn) | 6.56% |
| CCN(CC)S(=O)(=O)c1ccc(Oc2ccccc2)c(N)c1 | 3.88% |
| O=C(Oc1ccc2c(=O)c(Oc3ccc4ccccc4c3)coc2c1)c1cccnc1 | 3.72% |
| CC(NS(=O)(=O)c1ccc(F)cc1)C(c1cccs1)N1CCN(C)CC1 (stereo not drawn) | 8.12% |
| CCn1c(COc2ccccc2)nnc1SCc1ccc(C#N)cc1 | -17.1% |
| Cc1nc2ccc(S(=O)(=O)N(C)CC(=O)N3CCc4ccccc43)cc2s1 | 6.74% |
| COc1ccc(NC(=O)c2cc(-c3ccccc3)oc2C)cc1 | 9.2% |
| CCOc1ccc2nc(NC(=O)C3(C)CC3(Br)Br)sc2c1 (stereo not drawn) | 9.16% |
| O=C(CC1S/C(=N/N=C/c2cccnc2)NC1=O)Nc1ccccc1 (stereo not drawn) | 9.29% |
| Cn1c(NCC(O)c2ccccc2)nc2c1c(=O)n(Cc1ccc(Cl)cc1)c(=O)n2C (stereo not drawn) | 3.2% |
| COc1cc(-c2nc(S(=O)(=O)c3ccc(C)cc3)c(N(C)C)o2)cc(OC)c1OC | 1.16% |
| CC1CCCCN1CCCNC(=O)CCCN1C(=O)c2cccnc2Sc2ccccc21 (stereo not drawn) | 13.2% |
| COc1cc2c(cc1OC)C(c1ccccc1)N(C(=O)c1ccccc1F)CC2 (stereo not drawn) | -8.07% |
| CN1CCN(C(=O)c2c(O)c3cccc4c3n(c2=O)CCC4)CC1.Cl | 9.69% |
| O=C(O)CCn1c(O)c(C=C2N=c3ccccc3=N2)sc1=S | 8.95% |
| CC1Sc2ccc(S(=O)(=O)N3CCC(C(=O)NCCc4ccccc4)CC3)cc2NC1=O (stereo not drawn) | 9.83% |
| CCCCCCOc1ccc(N2C(=O)CC(NCc3ccc(S(N)(=O)=O)cc3)C2=O)cc1 (stereo not drawn) | 15.8% |
| CCn1c(-c2ccc[nH]c2=O)nc2ccccc21 | 6.24% |

| SMILES | hERG current change (%, negative = inhibition) at 1uM |
| --- | --- |
| C/C=C(\C)CN1CCC(n2nccc2NC(=O)CCCc2ccccc2)CC1 | -13.4% |
| Cc1c(C(=O)N2CCN(c3ccccn3)CC2)oc2ccccc12 | -3.84% |
| CCC(C(=O)NC(CC(=O)O)c1ccc(Cl)cc1)c1ccccc1 (stereo not drawn) | 18.9% |
| CCOC(=O)N1CCN(c2ncnc3nc[nH]c23)CC1 | 12.4% |
| COc1ccccc1C(CNC(=S)NCc1ccccc1)N1CCCC1 (stereo not drawn) | 9.49% |
| CCOC(=O)c1cnc2c(Cl)c(Cl)ccc2c1N1CCN(C)CC1.Cl | -1.79% |
| Cc1ccc(S(=O)(=O)N2CCOCC2)cc1NC(=O)Cn1nc(C)c([N+](=O)[O-])c1C | 17.4% |
| COc1ccc(NC(=O)c2ccc3nc(C)sc3c2)cc1 | 12.3% |
| CC(C)CN1C(=O)c2ccc(NC(=O)Cc3ccccc3)cc2C1=O | 11.4% |
| O=S(N1CCCCC1)C12CC3CC(CC(C3)C1)C2 (stereo not drawn) | 8.76% |
| O=[N+]([O-])c1cc(C(F)(F)F)ccc1NCC1CCCO1 (stereo not drawn) | 4.11% |
| COCCn1c(-c2ccc(-c3ccccc3Cl)o2)nc2c1c(=O)[nH]c(=O)n2CC(C)C | 20.2% |
| COc1ccc(OC)c(CCNC(=O)c2ccc3c(c2)N(Cc2ccc(F)cc2)CCS3)c1 | 17.9% |
| C=CCn1c(SCC(N)=O)nnc1-c1cnccn1 | 10.8% |
| c1ccc(CNc2c3ccccc3nc3ccccc23)cc1 | -74.5% |
| CCN(CC)C(=O)CSc1n[nH]c(=S)n1N | 12.5% |
| Cc1[nH]n(-c2ccc([N+](=O)[O-])cc2)c(=O)c1C=NCCc1c[nH]c2ccccc12 | 11.9% |
| CCN(CC)CCCN=Cc1c(O)n(CCc2ccc(OC)c(OC)c2)c(=O)[nH]c1=O | 0.515% |
| Cc1noc(C)c1S(=O)(=O)N(CC(=O)O)c1ccc2c(c1)OCO2 | 0.552% |
| CC1CCCC/C1=N\NC(=S)NCCc1ccccc1 (stereo not drawn) | 14.7% |
| COC(=O)c1sccc1NC(=O)Cc1ccc(Br)cc1 | 12.7% |
